{"source": "PubChem BioAssay AID686992", "about": "(Broad Institute, 2013)", "note": "Out of some 260,000 compounds screened, about 960 (0.37%) were called active. This list was built around the results that the source calls inconclusive (neither active nor inactive); the mix of calls is not that of the screen.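 Rule for the calls: active = mean E-selectin-positive cell signal at least 10% of the positive control, reached in at least 60% of replicates, without over 20% cell loss; inconclusive = no rule given, readout overlaps actives, possibly toxicity-flagged; inactive = the rest, including those meeting only one limit.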", "data": [{"target": "E-selectin (Homo sapiens) (UniProt P16581)", "sequence (P16581 whole entry, looked up)": "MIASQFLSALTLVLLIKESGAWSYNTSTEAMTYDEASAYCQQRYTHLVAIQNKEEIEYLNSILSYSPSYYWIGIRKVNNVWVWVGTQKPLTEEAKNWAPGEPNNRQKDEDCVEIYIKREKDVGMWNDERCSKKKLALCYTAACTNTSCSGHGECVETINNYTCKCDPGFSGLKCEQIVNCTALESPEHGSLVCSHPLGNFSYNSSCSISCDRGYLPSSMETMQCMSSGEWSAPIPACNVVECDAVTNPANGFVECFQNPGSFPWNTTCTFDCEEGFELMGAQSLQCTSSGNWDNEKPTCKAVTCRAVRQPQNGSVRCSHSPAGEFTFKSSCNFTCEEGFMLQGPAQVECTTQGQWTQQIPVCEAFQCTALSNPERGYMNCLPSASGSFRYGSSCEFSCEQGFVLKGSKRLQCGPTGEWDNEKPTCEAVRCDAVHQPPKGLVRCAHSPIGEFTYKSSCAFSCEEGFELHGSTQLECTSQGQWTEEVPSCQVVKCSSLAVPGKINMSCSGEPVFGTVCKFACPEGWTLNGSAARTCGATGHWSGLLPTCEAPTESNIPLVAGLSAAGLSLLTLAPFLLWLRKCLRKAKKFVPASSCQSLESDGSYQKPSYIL", "assay": "inducers of endothelial E-selectin expression – imaging, HUVEC, immunofluorescence imaging, single point, primary screen (AID 686992);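 note: signal is the percent of cells scored E-selectin positive by PE staining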", "settings": "at 7.58 µM, stronger effect = higher value, normalized: neutral wells 0, TNF-alpha wells 100", "method_in_brief": "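assay system = HUVEC, human umbilical vein endothelial cells | input = 3,000 HUVEC seeded per well | medium = EGM-2 growth medium on 0.1% gelatin-coated wells | dosing = one compound dose added by pin transfer | signal = immunofluorescence imaging | read-out basis = % PE-positive cells | control set = TNF-alpha, DMSO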", "values": [{"compound": "CO[C@H]1CN(C)C(=O)c2ccc(NC(=O)c3ccccc3)cc2OC[C@H](C)N(C(=O)C2CC2)C[C@@H]1C", "activation": "inconclusive: 35.9%"}, {"compound": "CCN(CCC(=O)Nc1cc(OC)cc(OC)c1)Cc1ccccc1", "activation": "inconclusive: 60.6%"}, {"compound": "COc1cccc(CNC(=O)Cn2nc(C)c3c(C)n(-c4ccc(C)cc4)nc3c2=O)c1OC", "activation": "inconclusive: 34.2%"}, {"compound": "Cc1cccc(NS(=O)(=O)c2csc(C(N)=O)c2)c1C", "activation": "active: 50%"}, {"compound": "CS(=O)(=O)c1ccc2nc(NC(=O)C3=NN(c4ccccc4)C(=O)CC3)sc2c1", "activation": "inactive: 8.32%"}, {"compound": "CCN(CC)c1ccc(/C=N/NC(=O)Cc2ccc(OC)c(OC)c2)cc1", "activation": "active: 35.8%"}, {"compound": "COc1ccc(NC(=O)c2cccc(N3C(=O)C4C5C=CC(C5)C4C3=O)c2)c(OC)c1", "note": "(stereo not drawn)", "activation": "inactive: -0.04%"}, {"compound": "C[C@@H]1CN([C@H](C)CO)C(=O)Cc2cc(NC(=O)c3ccncc3)ccc2O[C@H]1CN(C)S(C)(=O)=O", "activation": "active: 447%"}, {"compound": "O=C(c1ccccn1)N1C[C@H]2[C@@H](c3ccccc31)[C@H](CO)N2C(=O)C1CC1", "activation": "inactive: 0.107%"}, {"compound": "Cc1nc(N2CCN(Cc3ccc4c(c3)OCO4)CC2)[nH]c(=O)c1C", "activation": "inconclusive: 43.6%"}, {"compound": "CCCNC(=O)N1CC2(C1)[C@H](c1ccccc1)[C@H](CO)N2C(=O)C1CCC1", "activation": "inactive: 0.095%"}, {"compound": "CCCCNC(=O)CSc1nc2c(sc(=S)n2-c2cc(Cl)ccc2OC)c(=O)[nH]1", "activation": "inconclusive: 39.4%"}, {"compound": "CCOC(=O)C1=C(COC(=O)CSc2ccc(C)cc2)NC(=O)NC1C", "note": "(stereo not drawn)", "activation": "inconclusive: 29.7%"}, {"compound": "C[C@@H]1CN([C@H](C)CO)C(=O)c2cccc(NS(=O)(=O)c3cn(C)cn3)c2O[C@H]1CN(C)C(=O)Nc1ccc2c(c1)OCO2", "activation": "inconclusive: 43%"}, {"compound": "Cc1cc(C)c2c(=O)[nH]n(C3CCCCCC3)c2n1", "activation": "inactive: 4%"}, {"compound": "COc1ccc(CCNC(=O)c2ccc(CS(=O)(=O)Cc3cccc(C)c3)o2)cc1OC", "activation": "inconclusive: 28.4%"}, {"compound": "O=C(CCNC(=O)c1ccccc1Cl)NCCc1ccc(Cl)cc1", "activation": "inconclusive: 27.6%"}, {"compound": "CCS(=O)(=O)NCC[C@@H]1CC[C@@H](NC(=O)C2CC2)[C@@H](CO)O1", "activation": "inactive: -0.123%"}, {"compound": "CCS(=O)(=O)c1nc(S(=O)(=O)c2ccc(Cl)cc2)c(N2CCN(CCO)CC2)s1", "activation": "inconclusive: 26.9%"}, {"compound": "COc1cc(CC(=O)O)ccc1O", "activation": "inconclusive: 50.3%"}, {"compound": "O=C1/C(=C/c2cccs2)SC(=S)N1c1cccc(O)c1", "activation": "active: 51.7%"}, {"compound": "CC1=C(C(=O)N2CCN(C(=O)c3ccco3)CC2)C2(CCC(C)CC2)OC1=O", "note": "(stereo not drawn)", "activation": "inconclusive: 39.9%"}, {"compound": "Cc1ccc(O)c([C@H](CCN(C(C)C)C(C)C)c2ccccc2)c1", "activation": "inconclusive: 87.8%"}, {"compound": "COc1ccc(NC(=O)NCCCN2CCN(c3cc(C)ccc3C)CC2)cc1", "activation": "inactive: 0.998%"}, {"compound": "C[C@H]1CN([C@@H](C)CO)C(=O)c2cccc(NS(C)(=O)=O)c2O[C@@H]1CN(C)Cc1ccncc1", "activation": "active: 204%"}, {"compound": "COc1ccccc1C1CCN(C(=O)c2ccc(C(C)(C)C)cc2)CC1", "activation": "inconclusive: 27.8%"}, {"compound": "C[C@@H]1CN(Cc2nnnn2CC(=O)NCCCn2cccn2)C[C@H](C)O1", "activation": "inconclusive: 64.9%"}, {"compound": "C[C@@H]1CN([C@@H](C)CO)C(=O)c2c(c3ccccc3n2C)-c2ccccc2CO[C@H]1CN(C)Cc1ccc2c(c1)OCO2", "activation": "inactive: 5.07%"}, {"compound": "COc1cc(NC(=O)c2nccnc2C(=O)O)cc(OC)c1", "activation": "inconclusive: 80.1%"}, {"compound": "Cc1noc(C)c1S(=O)(=O)N(C)C[C@@H]1Oc2ccc(NC(=O)C3CC3)cc2CC(=O)N([C@@H](C)CO)C[C@@H]1C", "activation": "inconclusive: 94.8%"}, {"compound": "C[C@@H]1CN([C@@H](C)CO)C(=O)c2cccc(NS(=O)(=O)c3ccc(Cl)cc3)c2O[C@H]1CN(C)C(=O)Nc1ccc2c(c1)OCO2", "activation": "active: 97.6%"}, {"compound": "Cc1cccc(Nc2nc(-c3ccncc3)cs2)c1", "activation": "inconclusive: 32.7%"}, {"compound": "CC(CN1CCCCC1)OC(=O)c1ccco1", "note": "(stereo not drawn)", "activation": "active: 38.9%"}, {"compound": "CNC[C@H]1Oc2ccc(NS(=O)(=O)c3cn(C)cn3)cc2CC(=O)N([C@@H](C)CO)C[C@H]1C", "activation": "inactive: -0.01%"}, {"compound": "CCOC(=O)c1sc(NC(=O)C(CC)Sc2nnc3c4ccccc4n(C(C)C)c3n2)nc1C", "note": "(stereo not drawn)", "activation": "inconclusive: 29.3%"}, {"compound": "CCCC(=O)Nc1ccc2c(c1)C(=O)N(C)[C@H]1CC[C@@H](CC(=O)NCc3ccccc3F)O[C@@H]1CO2", "activation": "inactive: 0.216%"}, {"compound": "Cc1nn(C(=O)CCC(=O)NCc2cccc(F)c2)c2ccccc12", "activation": "inconclusive: 43.7%"}, {"compound": "Cc1ccc(Cl)cc1N1CCN(C(=O)c2ccc3nc[nH]c3c2)CC1", "activation": "inactive: 0.996%"}, {"compound": "Cc1nc(-c2ccc(NC(=O)C(C)(C)C)cc2)c(-c2ccccc2)o1", "activation": "inconclusive: 27.7%"}, {"compound": "Cc1cc(C)c(NC(=O)CNC(=O)COC(=O)/C=C/c2cccs2)c(C)c1", "activation": "inactive: -0.569%"}, {"compound": "Cc1ccc(S(=O)(=O)Nc2ccc3c(c2)C(=O)N([C@H](C)CO)C[C@@H](C)[C@@H](CN(C)Cc2ccc(Cl)c(Cl)c2)O3)cc1", "activation": "inconclusive: 37.2%"}, {"compound": "Cc1noc(C)c1S(=O)(=O)Nc1ccc2c(c1)C(=O)N([C@@H](C)CO)C[C@H](C)[C@H](CN(C)Cc1ccc3c(c1)OCO3)O2", "activation": "active: 401%"}, {"compound": "C[C@@H]1CN([C@H](C)CO)C(=O)c2c(c3ccccc3n2C)-c2ccccc2CO[C@@H]1CN(C)C(=O)CCC(F)(F)F", "activation": "inactive: -1.04%"}, {"compound": "Cc1ccc(C(O)c2ncc(-c3cccc(F)c3)[nH]2)cc1", "note": "(stereo not drawn)", "activation": "inconclusive: 52%"}, {"compound": "CCCCCCCCNS(=O)(=O)CCNCc1ccccc1OC", "activation": "inconclusive: 89.7%"}, {"compound": "CC(C)NC(=O)Nc1ccc2c(c1)CC(=O)N([C@@H](C)CO)C[C@@H](C)[C@H](CN(C)C(=O)Nc1ccccc1)O2", "activation": "inactive: -0.21%"}, {"compound": "COc1ccc(S(=O)(=O)Nc2cccc3c2O[C@H](CN(C)C(=O)Nc2c(C)noc2C)[C@@H](C)CN([C@@H](C)CO)C3=O)cc1", "activation": "active: 31.8%"}, {"compound": "COc1ccc(C2=NN(C(=O)CCC(=O)O)C(c3ccccc3OC)C2)cc1", "note": "(stereo not drawn)", "activation": "inconclusive: 39.3%"}]}]}
